Where “and” joins values, the source holds several entries; their conditions need not be identical. Equal values may be shown once. Hit rate of the full screen: of about 340,000 compounds, about 12,000 (3.5%) were called active. The inconclusive results got no clear call from the source; some entries with a clear call stand among them for comparison. Calls follow the shape of the dose curve; as a rule, active = well fitted inhibition curve with a large enough effect; inconclusive = small, poorly fitted or top-dose-only effect, or another doubt; inactive = no such curve, though single readings can be large or run the other way. A potency beside an inconclusive call is a rough fit, not a confirmed value.
Assay: qHTS Assay for Inhibitors of Hepatitis C Virus (HCV)
Conditions: Huh7.5.1 HCVcc-Cre (HCVcc is cell-culture hepatitis C virus) infection, luciferase reporter, 44 h; series mostly up to 41.8 µM
In short: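 After 44 h co-culture of compound, cells and HCVcc-Cre (~0.5 moi), substrate is added for 15 min at room temperature and luciferase measured over 15 sec. Cells were seeded at 1,000/well and pre-cultured 4 h.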
For `Cc1c(NC(=O)c2cc3c(s2)-c2ccccc2OC3)cccc1[N+](=O)[O-]`, the Potency was inconclusive: 2.24 µM [inhibitor, full curve]. For `C=C(C)c1cccc(C(C)(C)NC(=O)Nc2ccc(OC)cc2)c1`, the Potency was “inactive”. In the case of `CCOC(=O)/C(=N\Nc1ccccc1)N1CC1`, the Potency is reported as “inactive”. With `Cc1ccc(CNC(=S)Nc2cc(C)ccc2OC(F)F)cc1` the Potency was inconclusive: 5.62 µM [inhibitor, single point]. In the case of `Cc1onc(-c2c(Cl)cccc2Cl)c1C(=O)N=C(N)N1CC(C)OC(C)C1` (stereo not given), the Potency is reported as “inactive”. With `CCOC(=O)C1CCN(c2c(NCc3ccc(C(=O)NCCOC)cc3)c(=O)c2=O)CC1` the Potency was “inactive”. In the case of `Cc1ccc(NC(=O)C2C3C=CC4(O3)C2C(=O)N(CCN2CCOCC2)C4C(=O)NC2CCCCC2)cc1C` (stereo not given), the Potency is reported as inconclusive: 31.6 µM [inhibitor, single point]. In the case of `CC1(c2ccc(Cl)cc2Cl)NC(=O)N(CC(=O)NC2CCCCC2)C1=O` (stereo not given), the Potency is reported as inconclusive: 0.794 µM [inhibitor, full curve, poor fit]. With `CCCn1nc(NC(=O)c2cccs2)c2cc3ccccc3nc21` the Potency was active: 11.2 µM. With `COc1ccccc1N1C(=O)CC(Sc2n[nH]c(-c3cccc(C)c3)n2)C1=O` (stereo not given) the Potency was “inactive”. With `Cc1cccc(CSc2nnc3c(n2)[nH]c2ccccc23)c1` the Potency was “inactive”. For `CCC(NS(=O)(=O)c1ccc(C)cc1)C(=O)N1CCC2(O)CCCCC2C1` (stereo not given), the Potency was “inactive”. With `c1coc(-c2nc(-c3ccncc3)no2)c1` the Potency was “inactive”. With `c1ccc(-c2nnc(CN3CCN(C(c4ccccc4)c4ccccc4)CC3)o2)cc1` the Potency was “inactive”. For `Cc1cc(NC(=O)CCC(=O)N(Cc2ccco2)C(C)(C)C(=O)NC2CCCCC2)no1`, the Potency was inconclusive: 11.2 µM [inhibitor, partial curve]. With `CCc1ccc2c(CC(=O)NNC(=O)c3ccncc3)coc2c1` the Potency was “inactive”. In the case of `O=C(CSc1nc2c([nH]c3ccccc32)c(=O)n1-c1ccc(F)cc1)NCc1ccco1`, the Potency is reported as inconclusive: 14.1 µM [inhibitor, partial curve]. For `CS(=O)(=O)N1CCN(C(=O)c2ccc(Cl)s2)CC1`, the Potency was “inactive”. With `O=C(N/N=C1\C/C(=N\NC(=O)c2ccncc2)c2ccccc21)c1ccncc1` the Potency was inconclusive: 31.6 µM [inhibitor, single point]. In the case of `Cc1ccc(C(=O)NNC(=O)c2ccccc2O)cc1S(=O)(=O)N1CCCCC1`, the Potency is reported as active: 12.6 µM. For `COc1ccc(-c2nc(CS(=O)(=O)CC(=O)NCCCc3ccccc3)c(C)o2)cc1`, the Potency was inconclusive: 8.91 µM [inhibitor, partial curve]. For `COCCNC(C)C(=O)C12CC3CC(CC(C3)C1)C2` (stereo not given), the Potency was inconclusive: 31.6 µM [inhibitor, single point]. With `Nc1nonc1-n1nnc(C(=O)N/N=C/c2ccc(OCc3ccccc3)cc2)c1COc1ccc(F)cc1` the Potency was inconclusive: 0.891 µM [inhibitor, full curve, poor fit]. For `CCC(C)(C)C1CCC2(CC1)NC(=O)N(CC(=O)N(C)Cc1ccc3c(c1)OCCO3)C2=O` (stereo not given), the Potency was active: 12.6 µM. In the case of `O=C(c1ccc2c3c(cccc13)CC2)C1CCCN(Cc2ccccn2)C1` (stereo not given), the Potency is reported as inconclusive: 31.6 µM [inhibitor, single point]. In the case of `COc1ccc(N2CCN(C(CNS(=O)(=O)c3cccs3)c3cccnc3)CC2)cc1` (stereo not given), the Potency is reported as inconclusive: 3.55 µM [inhibitor, single point]. With `COc1ccc(Cn2nnnc2C(c2ccc(C)cc2)N2CCN(C3CCCC3)CC2)cc1` (stereo not given) the Potency was inconclusive: 1.78 µM [inhibitor, full curve]. In the case of `Cc1cn(C2OC(COC(=O)c3ccccc3)C(OC(=O)c3ccccc3)C2OC(=O)c2ccccc2)c(=O)[nH]c1=O` (stereo not given), the Potency is reported as “inactive”. For `CCOc1ccc(S(=O)(=O)NCc2ccccn2)c(C)c1C`, the Potency was “inactive”. In the case of `O=C(O)c1ccc(OC2CSC2)cc1`, the Potency is reported as inconclusive: 4.47 µM [inhibitor, single point]. With `CCOC(=O)c1[nH]c(C)c(C(=O)OCc2ccc(C)cc2)c1C` the Potency was inconclusive: 0.501 µM [inhibitor, full curve, poor fit]. In the case of `CCc1cccc(NS(=O)(=O)c2ccc3c(c2)N(C)CCO3)c1`, the Potency is reported as inconclusive: 22.4 µM [inhibitor, single point]. With `CCO[C@@H]1OC(C(=O)NC2CC2)=C[C@H](C2CCCCC2)[C@H]1CCCO` the Potency was inconclusive: 0.562 µM [inhibitor, full curve, poor fit]. With `CC(=O)c1cccc(S(=O)(=O)N2CCn3cccc3C2C)c1` (stereo not given) the Potency was inconclusive: 3.16 µM [inhibitor, single point]. For `O=C(c1ccc2c(c1)N(Cc1ccc(F)cc1)C(=O)c1ccccc1S2(=O)=O)N1CCN(c2ccccn2)CC1`, the Potency was active: 25.1 µM. With `Cc1c(O)ccc(/C=N/Nc2nc(-c3cccnc3)nc3ccccc23)c1O` the Potency was active: 25.1 µM. In the case of `O=C(N/N=C/c1cc([N+](=O)[O-])ccc1N1CCNCC1)c1ccc([N+](=O)[O-])cc1`, the Potency is reported as inconclusive: 31.6 µM [inhibitor, single point]. For `COc1ccccc1-c1nnc2sc(COc3ccc(Cl)cc3Cl)nn12`, the Potency was inconclusive: 11.2 µM [inhibitor, single point]. For `O=C(NC1CCCC1)C1(c2ccccc2)CCN(S(=O)(=O)c2ccccc2)CC1`, the Potency was inconclusive: 14.1 µM [inhibitor, partial curve]. For `CCN(C1CCCCC1)S(=O)(=O)c1ccc(C(=O)O)cc1`, the Potency was “inactive”. In the case of `Cc1nn2c3ccccc3n(CCN3CCCCC3)c2nc1=O`, the Potency is reported as inconclusive: 31.6 µM [inhibitor, single point]. For `Cc1ccc(CNC(=O)c2ccc(N3CCC4(CC3)CC(c3ccccc3)=NO4)c([N+](=O)[O-])c2)cc1`, the Potency was inconclusive: 8.91 µM [inhibitor, partial curve]. In the case of `O=C(Nc1cc(Cl)ccc1-n1cncn1)c1ccc([N+](=O)[O-])o1`, the Potency is reported as inconclusive: 31.6 µM [inhibitor, single point]. With `O=C(CN1C(=O)NC2(CCCCCCC2)C1=O)Nc1ccc(Cl)cc1` the Potency was inconclusive: 22.4 µM [inhibitor, single point]. For `CN(Cc1ccco1)C(=O)C1CCN(c2nnc(-n3cccc3)s2)CC1`, the Potency was “inactive”. For `O=C(CSc1nc2cccnc2n1Cc1ccccc1)N1CCCC1`, the Potency was inconclusive: 5.62 µM [inhibitor, single point]. For `COc1ccc(C2c3c4c(n(C)c3CCN2C)CCN(C)C4c2ccc(OC)cc2)cc1` (stereo not given), the Potency was active: 12.6 µM. In the case of `O=C(NN=C1C2CC3CC(C2)CC1C3)c1ccccc1O`, the Potency is reported as “inactive”. With `Cc1cccc(C)c1NC(=O)CSCc1cccc(CSCC(=O)Nc2c(C)cccc2C)n1` the Potency was “inactive”. For `CCCCn1c(N)c(N(CCOC)C(=O)CN2C(=O)NC3(CC(C)CC(C)(C)C3)C2=O)c(=O)[nH]c1=O` (stereo not given), the Potency was “inactive”. In the case of `COc1ccc(C2CC(=O)Oc3cc(C)c(Cl)c(C)c32)cc1` (stereo not given), the Potency is reported as inconclusive: 35.5 µM [inhibitor, partial curve]. With `Cc1ccc(NC(=O)CCn2c(=O)c3cccn3c3ccccc32)c(C)c1` the Potency was inconclusive: 22.4 µM [inhibitor, single point]. With `CCOC(=O)N1CCN(c2c(NCCCN(C)c3ccccc3)c(=O)c2=O)CC1` the Potency was “inactive”. With `COc1ccc(NS(=O)(=O)c2cc3c4c(c2)CCN4C(=O)CC3)cc1OC` the Potency was “inactive”. In the case of `Cn1c(=O)c2ccccc2n2c(CCl)nnc12`, the Potency is reported as “inactive”. With `Cc1ccc(C)c(N(CC(=O)NCc2ccco2)C(=O)CNS(=O)(=O)c2ccccc2)c1` the Potency was inconclusive: 11.2 µM [inhibitor, partial curve, poor fit]. In the case of `Cc1cccn2c(=O)nc(SCC(=O)c3ccc(Cl)cc3)nc12`, the Potency is reported as inconclusive: 14.1 µM [inhibitor, partial curve]. For `O=C(Nc1ccc2c(c1)OCO2)c1cccc2c1C(=O)N(C1CCCCC1)C2`, the Potency was inconclusive: 11.2 µM [inhibitor, single point]. For `CCOc1cc(NC(=O)c2cccs2)c(OCC)cc1NC(=O)c1ccccn1`, the Potency was inconclusive: 1.78 µM [inhibitor, partial curve]. In the case of `C/C(=N\Nc1nc(N2CCOCC2)nc(N2CCOCC2)n1)c1cccc([N+](=O)[O-])c1`, the Potency is reported as inconclusive: 5.01 µM [inhibitor, full curve, poor fit]. With `Cc1ccc(S(=O)(=O)N2CC(=O)Nc3ccccc32)c(C)c1NS(C)(=O)=O` the Potency was “inactive”. In the case of `NC(=S)Nc1cccc2cn[nH]c12`, the Potency is reported as “inactive”. For `Cc1ccc(C2CC(C(F)(F)F)n3nc(C(=O)NCc4c(C)nn(C)c4C)c(Cl)c3N2)cc1` (stereo not given), the Potency was active: 8.91 µM. In the case of `S=C(NCCCN1CCOCC1)N1CCN(c2cccc(Cl)c2)CC1`, the Potency is reported as inconclusive: 8.91 µM [inhibitor, partial curve]. For `CCOC(=O)c1c(C)n(C)c2ccc(OCC(O)CN3CCN(C)CC3)cc12` (stereo not given), the Potency was “inactive”. In the case of `CN(C)S(=O)(=O)c1cccc(C(=O)Nc2ccc(N3CCOCC3)cc2)c1`, the Potency is reported as inconclusive: 11.2 µM [inhibitor, partial curve]. With `c1ccc(-n2ncc3c(N4CCN(c5ccccn5)CC4)nc(N4CCCCC4)nc32)cc1` the Potency was inconclusive: 11.2 µM [inhibitor, partial curve]. With `O=c1ccc(S(=O)(=O)N2CCCC2)cn1Cc1ccc(Cl)cc1Cl` the Potency was active: 6.31 µM. With `CC(C(=O)Nc1ccc(S(=O)(=O)N2CCCC2)cc1)N1CCN(c2ccccc2O)CC1` (stereo not given) the Potency was inconclusive: 31.6 µM [inhibitor, single point]. In the case of `COc1cc(OC)c(NC(=O)CCNS(=O)(=O)c2cc(Br)cnc2N)cc1Cl`, the Potency is reported as “inactive and inconclusive: 2 µM [inhibitor, full curve]”.

From PubChem BioAssay AID651820 (National Center for Advancing Translational Sciences (NCATS), 2012)
Potency is read from the fitted curve at half-maximal effect; tags tell the direction and shape of the fitted curve.
